Measurements as given in PubChem BioAssay AID1645886 (National Center for Advancing Translational Sciences (NCATS), 2021).
Where “and” joins values, the source holds several entries; their conditions need not be identical. Identical values can stand only once. Out of some 16,000 compounds screened, about 260 (1.6%) were called active. Inconclusive results, whose numbers are uncertain, are shown with a selection of clear calls. Calls follow the shape of the dose curve; as a rule, active = well fitted inhibition curve with a large enough effect; inconclusive = small, poorly fitted or top-dose-only effect; inactive = no such curve, though single readings can be large or run the other way. Where the call is inconclusive, the potency comes from a doubtful curve fit.
Also: nearly all actives have a fitted effect of over 40% in size.
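For activity, negative = inhibition in this document: 100% = activation by cAMP agonist control.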
Potency is read from the fitted curve at half-maximal effect; tags tell the direction and shape of the fitted curve.

Each compound was assayed against Rap guanine nucleotide exchange factor 4 (Homo sapiens) (UniProt Q8WZA2) (assay: Validation qHTS for antagonist of cAMP-regulated guanine nucleotide exchange factor 4 (EPAC2)). Conditions: EPAC2 Rap1B BODIPY-GDP exchange, fluorescence; activity, negative = inhibition: at 112 µM (top of the series).
Chain of UniProt Q8WZA2 (Q8WZA2 whole entry, looked up): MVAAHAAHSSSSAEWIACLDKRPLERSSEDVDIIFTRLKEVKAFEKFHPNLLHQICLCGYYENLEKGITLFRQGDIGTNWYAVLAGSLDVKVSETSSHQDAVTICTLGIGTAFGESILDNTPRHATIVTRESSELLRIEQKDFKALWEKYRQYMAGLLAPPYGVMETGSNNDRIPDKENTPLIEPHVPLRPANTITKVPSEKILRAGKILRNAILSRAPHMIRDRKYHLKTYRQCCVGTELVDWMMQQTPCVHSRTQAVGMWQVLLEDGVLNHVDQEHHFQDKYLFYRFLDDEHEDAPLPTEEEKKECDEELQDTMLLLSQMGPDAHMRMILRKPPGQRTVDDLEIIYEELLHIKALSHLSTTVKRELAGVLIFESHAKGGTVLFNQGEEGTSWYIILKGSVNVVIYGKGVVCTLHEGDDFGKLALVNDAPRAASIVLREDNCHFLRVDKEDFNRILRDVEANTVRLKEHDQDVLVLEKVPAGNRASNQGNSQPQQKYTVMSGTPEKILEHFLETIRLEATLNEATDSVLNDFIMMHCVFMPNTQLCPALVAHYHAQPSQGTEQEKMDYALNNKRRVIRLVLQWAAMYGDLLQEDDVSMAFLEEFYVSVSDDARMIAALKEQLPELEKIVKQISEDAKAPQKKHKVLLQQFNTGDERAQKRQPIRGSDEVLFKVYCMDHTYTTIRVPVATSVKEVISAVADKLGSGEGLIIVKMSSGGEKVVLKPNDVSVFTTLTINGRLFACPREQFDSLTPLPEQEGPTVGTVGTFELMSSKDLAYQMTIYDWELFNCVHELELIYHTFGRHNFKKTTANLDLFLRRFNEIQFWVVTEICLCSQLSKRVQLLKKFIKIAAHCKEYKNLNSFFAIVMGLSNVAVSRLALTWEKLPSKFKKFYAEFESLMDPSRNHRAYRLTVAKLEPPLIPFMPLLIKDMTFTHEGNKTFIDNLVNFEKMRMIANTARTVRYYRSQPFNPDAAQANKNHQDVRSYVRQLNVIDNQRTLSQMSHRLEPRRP
Method in brief: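 Fluorescent exchange read-out: 100 nM EPAC2 with 250 nM RAP1B–BODIPY-GDP and 50 uM GDP; BODIPY-GDP release lowers fluorescence. Read at 480/540 nm every 5 min for 30 min at room temperature; normalized to 6.5 mM cAMP.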
With `Cc1oc(-c2cccc(NC(=O)c3ccccc3)c2)nc1CNC(=O)c1cnc2ccccn2c1=O` the “activity, negative = inhibition” value was inactive: -3.94%. `CCN1CCc2nc(N)oc2CC1` was tested, and the Potency was “inactive”. With `CNC(C)CCC=C(C)C` (configuration not stated) the “activity, negative = inhibition” value was inactive: 5.11%. For `N[C@@H](Cc1ccc(O)cc1)C(=O)O`, the Potency was inconclusive: 14.1 µM [inhibitor, partial curve]. For `CC(=O)N1CCC2(CC1)CN(c1ccncc1)C2`, the “activity, negative = inhibition” value was inactive: -25.6%. For `CN(Cc1cnc2nc(N)nc(N)c2n1)c1ccc(C(=O)N[C@@H](CCC(=O)O)C(=O)O)cc1`, the Potency was inconclusive: 0.501 µM [inhibitor, full curve, poor fit]. For `Cc1cnc(SCc2ccccn2)nc1C1CCCN(C(=O)c2cccc(-c3cccc(F)c3)c2)C1` (configuration not stated), the Potency was inconclusive: 5.62 µM [inhibitor, full curve, poor fit]. `O=c1c(CCc2ccccc2)nc2cnc(Oc3ccccc3)nc2n1C[C@H]1CCCO1` was tested, and the Potency was inconclusive: 15.8 µM [inhibitor, full curve, poor fit]. In the case of `CCOc1ccc2nc3cc(N)ccc3c(N)c2c1`, the Potency is reported as inconclusive: 11.2 µM [inhibitor, partial curve, poor fit]. In the case of `COc1ccc(-c2nc3cnc(N4CCNCC4)nc3n(C)c2=O)cc1`, the Potency is reported as inconclusive: 50.1 µM [inhibitor, partial curve]. For `CC(C)(C)CC(C)(C)c1ccc(O)c(Cc2ccc(Cl)cc2Cl)c1`, the Potency was inconclusive: 12.6 µM [inhibitor, partial curve, poor fit]. For `COC(=O)N1CCC2(CC1)CN(c1cccc(-c3ccccc3)c1)C2`, the Potency was inconclusive: 44.7 µM [inhibitor, partial curve, poor fit]. In the case of `CCCCCCCCCCCCCCC(F)C(=O)O` (configuration not stated), the Potency is reported as inconclusive: 8.91 µM [inhibitor, single point]. In the case of `Cc1ccc2c(C)ccnc2c1`, the Potency is reported as inconclusive: 0.562 µM [inhibitor, full curve, poor fit]. `CC(C)c1ccc2c(c1)CC[C@@H]1[C@@](C)(CN)CCC[C@]21C` was tested, and the “activity, negative = inhibition” value was inactive: -10.8%. `Cc1cc2nc(N3CCC(NC(C)c4nc(-c5ccccn5)no4)CC3)nc(C)c2cc1C` (configuration not stated) was tested, and the Potency was inconclusive: 2.51 µM [inhibitor, full curve, poor fit]. In the case of `CC(C)c1c(C(=O)NCC2(N3CCCCC3)CCCC2)cnn1-c1nccc(-c2ccco2)n1`, the “activity, negative = inhibition” value is reported as inactive: -8.72%. `CN(Cc1ccco1)c1nc(-c2cccnc2)nc2ccccc12` was tested, and the Potency was inconclusive: 17.8 µM [inhibitor, partial curve, poor fit]. In the case of `C[C@]12CC[C@@H]3c4ccc(OS(=O)(=O)O)cc4CC[C@H]3[C@@H]1CCC2=O`, the Potency is reported as inconclusive: 56.2 µM [inhibitor, partial curve, poor fit]. With `Cc1ccc(S(=O)(=O)NC(=O)NN2CCCCCC2)cc1` the Potency was inconclusive: 0.891 µM [inhibitor, full curve, poor fit]. With `CSc1nc2cc(Oc3cccc(Cl)c3Cl)c(Cl)cc2[nH]1` the Potency was inconclusive: 35.5 µM [inhibitor, partial curve]. In the case of `Cc1cnc(SCc2ccccn2)nc1C1CCCN(Cc2ccsc2)C1` (configuration not stated), the “activity, negative = inhibition” value is reported as inactive: -4.3%. For `CCCCNc1c(C(=O)OCC)c(C)nc2c1cnn2CC`, the Potency was inconclusive: 50.1 µM [inhibitor, partial curve]. `O=C(c1cc(C(F)(F)F)cc(C(F)(F)F)c1)N1CCC2(CCCN(c3ccccc3)C2)CC1` was tested, and the Potency was inconclusive: 1.58 µM [inhibitor, full curve, poor fit]. With `CC(O)(COc1ccccc1)c1ccc2c(c1)CN(Cc1cn[nH]c1-c1ccc(F)cc1)CCO2` (configuration not stated) the Potency was inconclusive: 50.1 µM [inhibitor, partial curve, poor fit]. For `COc1ncc2ncc(=O)n(Cc3cccs3)c2n1`, the “activity, negative = inhibition” value was inactive: -21.3%. In the case of `COc1ccc(CN2CCN(C(C)=O)CC2)cc1OC1CCN(C(=O)c2ccc3ccccc3n2)CC1`, the “activity, negative = inhibition” value is reported as inactive: -33.9%. `COC(=O)N1c2ccccc2C23[C@@H]4CN5CCC[C@]6(CCC12C(O)(C6)C4=O)[C@H]53` was tested, and the “activity, negative = inhibition” value was inactive: -0.682%. In the case of `COc1ccc(CN([C@H](C)CO)S(=O)(=O)N(Cc2ccccc2)[C@H](CO)C(C)C)cc1`, the Potency is reported as inconclusive: 39.8 µM [inhibitor, partial curve, poor fit]. `Cc1ncc2c(c1CNC(=O)/C=C/c1cccs1)CCN(C(=O)c1c(C)noc1C)C2` was tested, and the Potency was inconclusive: 100 µM [inhibitor, single point]. For `CNC(=O)[C@H]1O[C@H](n2cnc3c(NCc4cccc(I)c4)nc(Cl)nc32)[C@@H](O)[C@@H]1O`, the Potency was inconclusive: 50.1 µM [inhibitor, partial curve]. `COc1cc(-c2ccc(=O)[nH]n2)ccc1OC(F)F` was tested, and the Potency was inconclusive: 89.1 µM [inhibitor, partial curve, poor fit]. For `CCOC(=O)/C=C1\CN(Cc2cc(OC)c(OC)c(OC)c2)S(=O)(=O)c2ccc(C(F)(F)F)cc21`, the Potency was inconclusive: 44.7 µM [inhibitor, partial curve, poor fit]. With `CN(C)c1ccc(/C=C/c2ccnc3c2ccc2c(/C=C/c4ccc(N(C)C)cc4)ccnc23)cc1` the Potency was inconclusive: 0.251 µM [inhibitor, full curve, poor fit]. For `CC(C)(Sc1ccc(CCN(CCCCC2CCCCC2)C(=O)NC2CCCCC2)cc1)C(=O)O`, the Potency was inconclusive: 15.8 µM [inhibitor, partial curve, poor fit]. In the case of `NC1C=CC=C(C(=O)O)C1` (configuration not stated), the Potency is reported as inconclusive: 11.2 µM [inhibitor, full curve, poor fit]. For `Cc1ccccc1-c1cc(Nc2ccc(F)cc2)ncn1`, the Potency was inconclusive: 63.1 µM [inhibitor, partial curve, poor fit]. With `CC/C(=C(/CC)c1ccc(O)cc1)c1ccc(O)cc1` the Potency was inconclusive: 10 µM [inhibitor, full curve]. With `NC(N)=Nc1nc(CSCC/C(N)=N/S(N)(=O)=O)cs1` the Potency was inconclusive: 89.1 µM [inhibitor, single point]. In the case of `C[C@@H]1CN(Cc2ccc3c(c2)CN(Cc2cccc4cccnc24)CCO3)C[C@H](C)O1`, the “activity, negative = inhibition” value is reported as inactive: -17.6%. With `CN(C)c1nc2cc(Cl)ccc2cc1CN(Cc1ccc2c(c1)OCO2)C(=O)c1ccoc1` the Potency was inconclusive: 1.41 µM [inhibitor, full curve, poor fit]. With `c1ccc(-c2onc(-c3ccco3)c2-c2ccc3[nH]ccc3c2)cc1` the Potency was inconclusive: 79.4 µM [inhibitor, partial curve]. For `N#C/C(=C\c1ccc(O)c(O)c1)C(=O)NCc1ccccc1`, the Potency was inconclusive: 89.1 µM [inhibitor, partial curve, poor fit] and inconclusive: 89.1 µM [inhibitor, single point]. `O=C(c1cc(C(F)(F)F)cc(C(F)(F)F)c1)N1CCC2(CCCN(c3ccncc3)C2)CC1` was tested, and the Potency was inconclusive: 50.1 µM [inhibitor, partial curve, poor fit]. With `Cc1cc2c(C(C)C)c(O)c(O)c(C=O)c2c(O)c1-c1c(C)cc2c(C(C)C)c(O)c(O)c(C=O)c2c1O` the Potency was inconclusive: 100 µM [inhibitor, single point]. With `COc1ccc(-c2oc3cc(OC)c(OC(C)=O)c(OC)c3c(=O)c2OC)cc1OC(C)=O` the “activity, negative = inhibition” value was inactive: -9.57%. With `Cc1cnc2ccccc2c1/C=C/c1ccc(N(C)C)cc1` the “activity, negative = inhibition” value was inactive: -34.1%. `COc1ccc2c(=O)cc(-c3ccccc3)oc2c1O` was tested, and the “activity, negative = inhibition” value was inactive: -30.4%. In the case of `CCCCC(=O)NCCc1c(Cc2ccccc2)[nH]c2ccccc12`, the Potency is reported as inconclusive: 50.1 µM [inhibitor, partial curve, poor fit] and inconclusive: 44.7 µM [inhibitor, partial curve, poor fit]. With `Nc1ncnc2c1nc(Sc1ccc(Cl)cc1)n2[C@H]1OC2COP(=O)(O)O[C@@H]2C1O` (some centres not stated) the Potency was active: 0.501 µM. For `COC(=O)CC1C(C)(C)C(OC(C)=O)C2[C@H](OC(C)=O)[C@]34O[C@]2(O)[C@]1(C)C3CC[C@]1(C)C4=CC(=O)OC1c1ccoc1` (some centres not stated), the Potency was inconclusive: 6.31 µM [inhibitor, full curve]. `c1cc2c3c(c1)CCCN3CCC2` was tested, and the Potency was inconclusive: 89.1 µM [inhibitor, single point]. `CCCCOC(=O)CC(CC(=O)OCCCC)(OC(C)=O)C(=O)OCCCC` was tested, and the Potency was inconclusive: 12.6 µM [inhibitor, full curve]. `CCN1CCCC1CNC(=O)c1cnn(-c2nccc(-c3cccs3)n2)c1C(C)C` (configuration not stated) was tested, and the Potency was inconclusive: 0.708 µM [inhibitor, full curve, poor fit]. `Cc1nc(C)c(C(=O)NCc2nc(-c3cccc(NC(=O)c4ccccn4)c3)oc2C)s1` was tested, and the “activity, negative = inhibition” value was inactive: -16.8%. With `CCCCCCCCCCCCCC(=O)O[C@H](CC(=O)O)C[N+](C)(C)C` the Potency was inconclusive: 50.1 µM [inhibitor, partial curve]. With `CCCN1CCC(=O)N([C@H](COc2ccccc2)c2ccccc2)CC1` the Potency was inconclusive: 63.1 µM [inhibitor, partial curve, poor fit]. In the case of `CCC(Cc1c(I)cc(I)c(O)c1I)C(=O)O` (configuration not stated), the Potency is reported as inconclusive: 10 µM [inhibitor, partial curve]. In the case of `COc1ccc2[nH]cc(CCNc3cc(-c4ccccc4Cl)ncn3)c2c1`, the Potency is reported as inconclusive: 63.1 µM [inhibitor, partial curve, poor fit]. In the case of `CCCCC/C=C\C/C=C\C/C=C\C/C=C\CCCC(=O)O`, the Potency is reported as inconclusive: 15.8 µM [inhibitor, partial curve] and inactive. For `O=c1c(-c2ccc(Cl)cc2)nc2cnc(N3CCNCC3)nc2n1Cc1cccs1`, the Potency was inconclusive: 28.2 µM [inhibitor, full curve, poor fit]. In the case of `CCC[C@H]1COCCS(=O)(=O)N1Cc1ccc(Br)cc1`, the Potency is reported as inconclusive: 39.8 µM [inhibitor, partial curve, poor fit].
